In brackets after ≈: the same amount, converted by molar mass. Like-named read-outs stand apart in the source and are kept apart here. Not every detail of the peptide structures is certain; ends, links or a residue may be inferred. Some compounds share one wording; it may come from a single statement. Where a SMILES comes first, the peptide text is derived from it. Where no end group is shown, it is not given here.
Legend:
Ebola virus (EBOV) = conditions: read-out: EC50 Values for the Indicated Virus
Marburg virus (MARV) = conditions: read-out: EC50 Values for the Indicated Virus
[1] = system: panel of enveloped viruses (DENV, JEV, YFV, CHIKV and others)
HIV-1RF = assay type: cell-based
Escherichia coli = assay type: cell-based
Pseudomonas aeruginosa = assay type: cell-based
Klebsiella pneumoniae = assay type: cell-based
[2] = system: Gram-negative aerobes (E. coli, K. pneumoniae, and P. aeruginosa); assay type: cell-based
[3] = system: Staphylococcus aureus (MSSA)
[4] = system: Enterococcus faecalis (VSE)
[5] = system: Enterococcus faecalis (VRE)
[6] = system: Enterococcus faecium (VRE)
[7] = system: Streptococcus pneumoniae (PSSP)
[8] = system: Streptococcus pneumoniae (PRSP)
[9] = system: Bacillus anthracis Sterne

For GSSWLRDVWTWLQSKL [TSG002], the EC50 (DENV-1 PRS41393) was 1.55 µM, the EC50 (DENV-4 H241) was 1.88 µM and the EC50 (JEV 14-14-2) was 2.4 µM. The EC50 (YFV 17D) was 2.18 µM, the EC50 (Ebola virus (EBOV)) was 1.01 µM and the EC50 (Marburg virus (MARV)) was 0.922 µM. The “anti-infective activity” value [1] was “displayed anti-infective activity”.
In the case of `CC[C@H](C)[C@H](NC(=O)[C@H](Cc1c[nH]c2ccccc12)NC(=O)[C@H](CC(=O)O)NC(=O)[C@H](Cc1c[nH]c2ccccc12)NC(=O)[C@@H](NC(=O)[C@H](CC(=O)O)NC(=O)[C@H](CCCNC(=N)N)NC(=O)[C@H](CC(C)C)NC(=O)[C@H](Cc1c[nH]c2ccccc12)NC(=O)[C@H](CO)NC(=O)CNC(=O)[C@@H](N)CO)C(C)C)C(=O)N[C@@H](CS)C(=O)N[C@H](C(=O)N[C@H](C(=O)N[C@@H](CC(C)C)C(=O)N[C@H](C(=O)N[C@@H](CC(=O)O)C(=O)N[C@@H](Cc1ccccc1)C(=O)N[C@@H](CCCCN)C(=O)N[C@H](C(=O)N[C@@H](Cc1c[nH]c2ccccc12)C(=O)N[C@@H](CC(C)C)C(=O)N[C@@H](CCC(N)=O)C(=O)N[C@@H](CO)C(=O)N[C@@H](CCCCN)C(=O)N[C@@H](CC(C)C)C(=O)O)[C@@H](C)O)[C@@H](C)O)C(C)C)[C@@H](C)O` [AH, reference compound], the EC50 (CHIKV 181/25) is reported as 6.01 µM, the EC50 (DENV-1 PRS41393) is reported as 2.55 µM and the EC50 (DENV-2 New Guinea C) is reported as 0.18 µM. The EC50 (DENV-3 H87) was 7.22 µM, the EC50 (DENV-4 H241) was 3.46 µM and the EC50 (JEV 14-14-2) was 0.54 µM. For the same compound, the EC50 (YFV 17D) was 21.7 µM.
With GSSWLRDVWTKLQSWL [TSG004] the EC50 (DENV-1 PRS41393) was 8.51 µM, the EC50 (DENV-3 H87) was 6.14 µM and the EC50 (JEV 14-14-2) was 4.68 µM. The EC50 (YFV 17D) was 7.99 µM and the “anti-infective activity” value [1] was “displayed anti-infective activity”.
GSSWLRDVWTWLQSAL [TSG003] was tested, and the EC50 (CHIKV 181/25) was 2.18 µM, the EC50 (DENV-2 New Guinea C) was 1.73 µM and the EC50 (DENV-3 H87) was 1.73 µM. For the same compound, the EC50 (DENV-4 H241) was 1.91 µM, the EC50 (YFV 17D) was 2.14 µM and the “anti-infective activity” value [1] was “displayed anti-infective activity”.
“SWLRDIWDWICEVLSDFK [C5A, reference compound]” showed an EC50 (CHIKV 181/25) of 3.09 µM, an EC50 (DENV-1 PRS41393) of 0.65 µM and an EC50 (DENV-2 New Guinea C) of 0.34 µM. For the same compound, the EC50 (JEV 14-14-2) was 0.47 µM and the EC50 (YFV 17D) was 0.29 µM.
In the case of `CC(C)C[C@H](NC(=O)[C@H](CCCCN)NC(=O)[C@H](CO)NC(=O)[C@H](CCC(N)=O)NC(=O)[C@H](CC(C)C)NC(=O)[C@H](Cc1c[nH]c2ccccc12)NC(=O)[C@@H](NC(=O)[C@H](Cc1c[nH]c2ccccc12)NC(=O)[C@@H](NC(=O)[C@H](CC(=O)O)NC(=O)[C@H](CCCNC(=N)N)NC(=O)[C@H](CC(C)C)NC(=O)[C@H](Cc1c[nH]c2ccccc12)NC(=O)[C@H](CO)NC(=O)CNC(=O)[C@@H](N)CO)C(C)C)[C@@H](C)O)C(=O)O` [TSG001] (H-SGSWLRDVWTWLQSKL-OH; N-terminus and C-terminus assumed), the “TCID50 Sample - Virus” value (HIV-1RF; 0.5 μM during exposure, Day 3) is reported as 5.8, the “TCID50 Sample - Virus” value (HIV-1RF; 0.5 μM during exposure, Day 6) is reported as 6.3 and the “TCID50 Sample - Virus” value (HIV-1RF; 5 μM during exposure, Day 3) is reported as 5.3. The “TCID50 Sample - Virus” value (HIV-1RF; 5 μM during exposure, Day 6) was 5.8, the “TCID50 Sample - Virus” value (HIV-1RF; 15 μM during exposure, Day 3) was 5 and the “TCID50 Sample - Virus” value (HIV-1RF; 15 μM during exposure, Day 6) was 5.6. For the same compound, the “TCID50 Sample - Virus” value (HIV-1RF; 50 μM during exposure, Day 3) was 3.9, the “TCID50 Sample - Virus” value (HIV-1RF; 50 μM during exposure, Day 6) was 5 and the MIC (Escherichia coli) was over 64 µg/mL. The MIC (Pseudomonas aeruginosa) was over 64 µg/mL, the MIC (Klebsiella pneumoniae) was over 64 µg/mL and the “antibacterial activity” value [2] was “inactive”. For the same compound, the EC50 (DENV-2 New Guinea C) was 1.95 µM, the EC50 (DENV-3 H87) was 1.9 µM and the EC50 (DENV-4 H241) was 1.64 µM. It also gave an EC50 (JEV 14-14-2) of 2.01 µM, an EC50 (YFV 17D) of 1.53 µM and an EC50 (Ebola virus (EBOV)) of 0.934 µM. For the same compound, the EC50 (Marburg virus (MARV)) was 0.637 µM, the “anti-infective activity” value [1] was “displayed anti-infective activity” and the MIC [3] was 4 µg/mL (≈ 2.04 µM). It also gave an MIC [4] of 4 µg/mL (≈ 2.04 µM), an MIC [5] of 8 µg/mL (≈ 4.08 µM) and an MIC [6] of 4 µg/mL (≈ 2.04 µM). It also gave an MIC [7] of 16 µg/mL (≈ 8.15 µM), an MIC [8] of 16 µg/mL (≈ 8.15 µM) and an MIC (Streptococcus pyogenes) of 8 µg/mL (≈ 4.08 µM). For the same compound, the MIC (Streptococcus agalactiae) was 16 µg/mL (≈ 8.15 µM), the MIC (Streptococcus salivarius) was 8 µg/mL (≈ 4.08 µM) and the MIC [9] was 2 µg/mL (≈ 1.02 µM).
For GSSWLRDIWTALQSWL [TSG006], the EC50 (CHIKV 181/25) was 3.44 µM, the EC50 (DENV-2 New Guinea C) was 0.67 µM and the EC50 (YFV 17D) was 0.79 µM. The “anti-infective activity” value [1] was “displayed anti-infective activity”.

From patent US11866460B2 (priority 2015, dated 2024)
